Measured values taken from PubChem BioAssay AID504333 (National Center for Advancing Translational Sciences (NCATS), 2011).
The campaign covered roughly 360,000 compounds. About 16,000 (4.4%) were called active. The shares of active, inactive and inconclusive entries below differ from those in the screen. Calls come from the whole dose curve; as a rule, active = well fitted inhibition curve with a large enough effect; inconclusive = small, poorly fitted or top-dose-only effect; inactive = no such curve, though single readings can be large or run the other way. Potencies beside an inconclusive call are fits to weak or partial responses and may not hold up.

biological target: Bromodomain adjacent to zinc finger domain protein 2B (Homo sapiens) (UniProt Q9UIF8); test: qHTS Assay for Inhibitors of BAZ2B; conditions: AlphaScreen BAZ2B-H3K14Ac peptide displacement; activity change, negative = inhibition: at 114 µM (top of the series); note: nearly all actives have a fitted effect of over 60% in size
Sequence of UniProt Q9UIF8 (Q9UIF8 whole entry, looked up, the tested form may be a part): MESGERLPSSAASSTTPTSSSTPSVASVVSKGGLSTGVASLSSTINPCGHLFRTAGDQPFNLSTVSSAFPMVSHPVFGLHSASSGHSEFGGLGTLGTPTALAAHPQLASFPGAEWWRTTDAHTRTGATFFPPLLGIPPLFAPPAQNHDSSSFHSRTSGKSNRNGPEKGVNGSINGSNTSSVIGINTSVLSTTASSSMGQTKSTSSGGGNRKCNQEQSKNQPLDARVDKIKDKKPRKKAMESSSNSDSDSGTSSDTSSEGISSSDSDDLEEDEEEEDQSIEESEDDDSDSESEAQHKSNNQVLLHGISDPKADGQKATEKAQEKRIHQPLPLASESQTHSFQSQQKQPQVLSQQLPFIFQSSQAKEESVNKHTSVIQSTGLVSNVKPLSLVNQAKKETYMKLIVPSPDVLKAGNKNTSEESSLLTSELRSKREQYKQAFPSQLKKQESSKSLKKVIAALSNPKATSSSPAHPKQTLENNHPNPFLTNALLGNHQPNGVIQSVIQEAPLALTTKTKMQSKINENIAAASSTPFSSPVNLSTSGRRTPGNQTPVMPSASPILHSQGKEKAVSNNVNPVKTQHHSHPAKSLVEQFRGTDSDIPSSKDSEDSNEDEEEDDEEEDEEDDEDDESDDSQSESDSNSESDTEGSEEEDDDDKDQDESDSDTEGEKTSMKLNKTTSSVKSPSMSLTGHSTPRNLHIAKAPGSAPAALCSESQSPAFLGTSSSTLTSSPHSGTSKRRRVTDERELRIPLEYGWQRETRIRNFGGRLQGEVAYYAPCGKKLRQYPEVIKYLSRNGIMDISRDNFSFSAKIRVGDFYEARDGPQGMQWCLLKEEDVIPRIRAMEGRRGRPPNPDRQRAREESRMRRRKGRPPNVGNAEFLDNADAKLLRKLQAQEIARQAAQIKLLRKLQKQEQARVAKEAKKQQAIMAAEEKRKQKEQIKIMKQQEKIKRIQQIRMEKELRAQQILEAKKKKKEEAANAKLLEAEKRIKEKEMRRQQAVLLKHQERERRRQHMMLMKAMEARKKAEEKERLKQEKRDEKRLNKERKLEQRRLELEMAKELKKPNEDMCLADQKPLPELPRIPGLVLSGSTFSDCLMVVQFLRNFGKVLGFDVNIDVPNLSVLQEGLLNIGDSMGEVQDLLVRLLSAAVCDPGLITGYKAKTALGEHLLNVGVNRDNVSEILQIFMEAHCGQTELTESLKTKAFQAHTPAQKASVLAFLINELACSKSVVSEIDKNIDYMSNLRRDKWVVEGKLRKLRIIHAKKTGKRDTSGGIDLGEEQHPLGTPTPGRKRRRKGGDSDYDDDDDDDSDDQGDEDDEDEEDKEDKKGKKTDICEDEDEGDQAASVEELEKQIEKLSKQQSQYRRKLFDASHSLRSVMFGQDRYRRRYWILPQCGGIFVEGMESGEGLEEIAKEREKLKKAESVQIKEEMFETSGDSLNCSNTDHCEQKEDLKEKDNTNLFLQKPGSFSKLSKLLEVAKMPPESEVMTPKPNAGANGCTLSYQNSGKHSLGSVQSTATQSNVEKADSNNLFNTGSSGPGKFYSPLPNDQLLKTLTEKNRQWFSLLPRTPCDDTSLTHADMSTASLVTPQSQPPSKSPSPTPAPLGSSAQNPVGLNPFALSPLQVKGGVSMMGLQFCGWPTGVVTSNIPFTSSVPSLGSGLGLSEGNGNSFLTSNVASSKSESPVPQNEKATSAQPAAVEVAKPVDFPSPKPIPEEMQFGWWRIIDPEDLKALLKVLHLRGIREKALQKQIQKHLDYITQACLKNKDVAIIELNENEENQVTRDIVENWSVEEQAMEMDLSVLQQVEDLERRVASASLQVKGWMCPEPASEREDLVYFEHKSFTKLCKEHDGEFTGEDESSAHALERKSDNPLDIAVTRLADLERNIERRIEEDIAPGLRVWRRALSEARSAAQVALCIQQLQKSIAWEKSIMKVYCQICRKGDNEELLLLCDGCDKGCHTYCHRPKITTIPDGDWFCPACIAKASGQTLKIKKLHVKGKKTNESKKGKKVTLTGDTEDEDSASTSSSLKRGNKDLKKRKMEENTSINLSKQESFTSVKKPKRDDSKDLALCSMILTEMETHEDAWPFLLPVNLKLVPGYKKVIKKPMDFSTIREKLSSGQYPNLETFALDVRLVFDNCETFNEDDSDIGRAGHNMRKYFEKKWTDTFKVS
Summary of the method: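 Complex of BAZ2B and biotin-H3K14Ac (50 nM apiece) forms over 30 min at RT, then faces library compounds up to 110 uM for another 30 min; AlphaScreen beads added, 20 min dark incubation, luminescence read.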
% is set by controls: 0 for no effect and ±100 for the full control effect; potency is the fitted concentration of half-maximal effect; tags give direction and shape of the fitted curve.

Question: Which Potency does the source give for `COc1cc2c(cc1OC)CN(c1nc(CN3CCOCC3)nc3sc4c(c13)CCCC4)CC2` here?
Answer: active: 44.7 µM

Question: With `CCN(CC)c1ccc(NC(=O)CN2CCN(c3ccccn3)CC2)cc1` as the molecule, how does the Potency read?
Answer: inconclusive: 44.7 µM [inhibitor, partial curve]

Question: Which “activity change, negative = inhibition” value does the source give for `CC(Cc1cccs1)NC(=O)CCCn1nnnc1CN1CCOCC1` (stereo not drawn) here?
Answer: inactive: 1.59%

Question: `COC(=O)/C=C1/S/C(=N/NC(=O)c2ccccc2C)NC1=O` was tested. Which Potency did it give?
Answer: active: 56.2 µM

Question: Which Potency does the source give for `CCOC(=O)c1c(NC(=O)CSc2cn(CC)c3ccccc23)sc2c1CCC2` here?
Answer: inconclusive: 15.8 µM [inhibitor, partial curve]

Question: For `COc1ccccc1N1CCN(C(=O)c2ccc(-c3ccccc3)cc2)CC1`, which Potency is on record?
Answer: inconclusive: 70.8 µM [inhibitor, single point]

Question: Which Potency does the source give for `CC/C(=N\NC(=S)Nc1cc(C)ccc1C)c1ccc(OC(F)F)cc1` here?
Answer: inconclusive: 14.1 µM [inhibitor, full curve]

Question: With `O=[N+]([O-])CC(=Nc1ccc(Cl)cc1)N/N=C\c1oc(O)c2ccccc12` as the molecule, how does the Potency read?
Answer: inconclusive: 79.4 µM [inhibitor, single point]

Question: For `CCOc1ccc(OCCCCN2CCCC2)cc1`, which Potency is on record?
Answer: inconclusive: 89.1 µM [inhibitor, single point]

Question: How did the Potency turn out when `CC(C)[C@H](N)c1cn([C@@H](CO)C(=O)N2CCNCC2)nn1` was run?
Answer: inconclusive: 89.1 µM [inhibitor, single point]

Question: Which Potency does the source give for `COc1ccc(OCCNS(=O)(=O)c2ccc3oc4ccccc4c3c2)cc1` here?
Answer: inconclusive: 89.1 µM [inhibitor, single point]

Question: Which Potency does the source give for `Nc1c(C(=O)c2ccccc2)sc2nsc(SCCN3CCCC3)c12` here?
Answer: inconclusive: 89.1 µM [inhibitor, single point]

Question: `Cc1ccccc1C(=O)Nc1ccc(S(=O)(=O)N2CCOCC2)cc1` was tested. Which “activity change, negative = inhibition” value did it give?
Answer: inactive: 2.79%

Question: `COc1ccc(-c2csc(N=C(N)N)n2)cc1` was tested. Which Potency did it give?
Answer: inconclusive: 28.2 µM [inhibitor, partial curve, poor fit]

Question: How did the Potency turn out when `C#CCOCCOCCOCCNc1nc(N2CCN(C(=O)[C@H](CCC(=O)O)n3cc(C(N)CO)nn3)CC2)nc(N2CCN(C(=O)[C@H](CCC(=O)O)n3cc(C(N)CC(C)C)nn3)CC2)n1` (stereo partly drawn) was run?
Answer: active: 20 µM

Question: Which Potency does the source give for `COc1ccc2ccccc2c1/C=N/NC(=O)c1ccc(C)nc1` here?
Answer: inconclusive: 79.4 µM [inhibitor, single point]

Question: Which “activity change, negative = inhibition” value does the source give for `COc1ccccc1CN1CC(C(=O)NCc2cccc(Cl)c2)CCC1=O` (stereo not drawn) here?
Answer: inactive: -2.68%

Question: `CCc1nn(CC(=O)NCCOC)c(=O)c2cc3cc(F)ccc3n12` was tested. Which “activity change, negative = inhibition” value did it give?
Answer: inactive: -0.204%

Question: How did the Potency turn out when `NC(=O)C1CCN(C(=O)c2ccc3c(=O)n(Cc4ccco4)c(SCC(=O)c4ccccc4)nc3c2)CC1` was run?
Answer: inconclusive: 79.4 µM [inhibitor, single point]

Question: With `CC(=O)Oc1ccc(C(=O)Cc2ccccn2)c(O)c1` as the molecule, how does the Potency read?
Answer: inconclusive: 89.1 µM [inhibitor, single point]

Question: With `Cc1ccc(/C=N/NC(=O)c2cc(-c3ccncc3)nc3ccccc23)o1` as the molecule, how does the Potency read?
Answer: inconclusive: 39.8 µM [inhibitor, partial curve]

Question: How did the Potency turn out when `Cc1cc(S(=O)(=O)Nc2ccc(O)c(Sc3nc4ccccc4s3)c2)ccc1Cl` was run?
Answer: inconclusive: 22.4 µM [inhibitor, full curve]

Question: How did the Potency turn out when `CCOc1ccccc1NC(=S)N(CCCN1CCOCC1)Cc1cn(C)c2ccccc12` was run?
Answer: inconclusive: 50.1 µM [inhibitor, partial curve]

Question: How did the Potency turn out when `O=C(NCCc1ccco1)c1nn(Cc2ccccc2)c(=O)c2ccccc12` was run?
Answer: active: 50.1 µM

Question: Which Potency does the source give for `CN1C(=O)/C(=C\c2cc(N=Nc3ccccc3)ccc2O)SC1=S` here?
Answer: active: 3.55 µM

Question: With `Cc1ccc(S(=O)(=O)N(C(=O)c2ccco2)c2cc3sc(=O)oc3c3ccccc23)cc1` as the molecule, how does the Potency read?
Answer: inconclusive: 44.7 µM [inhibitor, partial curve]

Question: `Cc1c(NC(=O)CSc2nc3c(cnn3-c3ccccc3)c(=O)[nH]2)c(=O)n(-c2ccccc2)n1C` was tested. Which “activity change, negative = inhibition” value did it give?
Answer: inactive: -2.73%

Question: `COc1cc(NC(=O)C2CCC(CNS(=O)(=O)c3csc(C(N)=O)c3)CC2)cc(OC)c1` (stereo not drawn) was tested. Which Potency did it give?
Answer: inconclusive: 79.4 µM [inhibitor, single point]

Question: Which Potency does the source give for `O=[N+]([O-])c1ccc(C2Oc3ccccc3C3CC(c4ccccc4)=NN32)s1` (stereo not drawn) here?
Answer: inconclusive: 50.1 µM [inhibitor, partial curve]

Question: With `Cc1c(NC(=O)c2ccc(COc3ccc4ccccc4c3)o2)c(=O)n(-c2ccccc2)n1C` as the molecule, how does the Potency read?
Answer: active: 50.1 µM

Question: `Cc1ccc(S(=O)(=O)c2nc(-c3ccc(F)cc3)oc2SCC(=O)NCC2CCCO2)cc1` (stereo not drawn) was tested. Which “activity change, negative = inhibition” value did it give?
Answer: inactive: 4.63%

Question: `Cc1cccn2c(=O)cc(COc3cccc(NC(=O)c4cccc(Cl)c4)c3)nc12` was tested. Which “activity change, negative = inhibition” value did it give?
Answer: inactive: 3.78%

Question: `O=C(N/N=C/c1ccc(Cl)cc1Cl)c1ccncc1` was tested. Which Potency did it give?
Answer: inconclusive: 89.1 µM [inhibitor, single point]

Question: How did the Potency turn out when `CCCC(C)c1nnc(NC(=O)C(=O)OCC)s1` (stereo not drawn) was run?
Answer: active: 56.2 µM

Question: With `CCOC(=O)C1C(=O)C=C(c2ccc(NS(C)(=O)=O)cc2)CC1c1ccco1` (stereo not drawn) as the molecule, how does the Potency read?
Answer: inconclusive: 89.1 µM [inhibitor, single point]

Question: `Cc1ccc(C)c(NC(=O)c2ncn[nH]2)c1` was tested. Which Potency did it give?
Answer: inconclusive: 89.1 µM [inhibitor, single point]

Question: With `Cn1c(CNc2nc3ccccc3n2CCN2CCCCC2)nc2ccccc21` as the molecule, how does the Potency read?
Answer: inconclusive: 35.5 µM [inhibitor, partial curve]

Question: How did the Potency turn out when `O=c1c2ccccc2c(/C=N/n2cnnc2)c(O)n1-c1ccccc1F` was run?
Answer: inconclusive: 89.1 µM [inhibitor, single point]

Question: With `CN(C(=O)c1cc2nc(-c3ccc4c(c3)OCO4)cc(C(F)(F)F)n2n1)c1ccc(OC(F)(F)F)cc1` as the molecule, how does the “activity change, negative = inhibition” value read?
Answer: inactive: 6%

Question: Which “activity change, negative = inhibition” value does the source give for `O=[N+]([O-])c1ccc(N2CCN(c3ccccc3F)CC2)c(S(=O)(=O)N2CCOCC2)c1` here?
Answer: inactive: -9.5%

Question: With `COc1ccc(-c2cn3cccc(C)c3n2)cc1Br` as the molecule, how does the Potency read?
Answer: inconclusive: 79.4 µM [inhibitor, single point]

Question: `COc1cc(OC)c2c(-c3ccccc3)cc(=O)oc2c1C(CC(=O)N1CCCC1)c1ccc2c(c1)OCO2` (stereo not drawn) was tested. Which Potency did it give?
Answer: inconclusive: 50.1 µM [inhibitor, partial curve]

Question: Which Potency does the source give for `CNc1nc2c(c(=O)n(C)c(=O)n2C)n1CC(O)COc1ccc(OC)cc1` (stereo not drawn) here?
Answer: inconclusive: 7.94 µM [inhibitor, full curve, poor fit]
